The other results are listed elsewhere or left out.
Tests used:
Experiment in all cases: glycan array binding signal (z-score within array); higher = stronger binding
Conditions in all cases: glycan notation: IUPAC condensed, linker removed
[1] = target: Gal(b1-4)GlcNAc(b1-6)[Gal(b1-3)]GalNAc
Method in brief: (§1)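 Columns mapping to the same glycan were averaged after glycan names were converted to IUPAC-condensed notation. The data come from 3228 arrays in the Consortium for Functional Glycomics database, limited to those with an available protein sequence. Binding is reported as a within-array Z-score averaged across arrays of one protein sequence and across linkers.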

[2] = target: Gal3S(b1-3)GalNAc
Method in brief: as §1

[3] = target: Gal3S(b1-3)GlcNAc
Method in brief: as §1

[4] = target: Gal3S(b1-3)[Fuc(a1-4)]GlcNAc
Method in brief: as §1

[5] = target: Gal3S(b1-4)Glc
Method in brief: as §1

[6] = target: Gal3S(b1-4)Glc6S
Method in brief: as §1

[7] = target: Gal3S(b1-4)GlcNAc
Method in brief: as §1

[8] = target: Gal3S(b1-4)GlcNAc6S
Method in brief: as §1

[9] = target: Gal3S(b1-4)[Fuc(a1-3)]Glc
Method in brief: as §1

[10] = target: Gal3S(b1-4)[Fuc(a1-3)]Glc6S
Method in brief: as §1

[11] = target: Gal3S4S(b1-4)GlcNAc
Method in brief: as §1

[12] = target: Gal3S6S(b1-4)GlcNAc
Method in brief: as §1

[13] = target: Gal3S6S(b1-4)GlcNAc6S
Method in brief: as §1

[14] = target: Gal4S(b1-4)GlcNAc
Method in brief: as §1

[15] = target: Gal4S6S(b1-4)GlcNAc
Method in brief: as §1

[16] = target: Gal6S(b1-4)Glc
Method in brief: as §1

[17] = target: Gal6S(b1-4)Glc6S
Method in brief: as §1

[18] = target: Gal6S(b1-4)GlcNAc
Method in brief: as §1

[19] = target: Gal6S(b1-4)GlcNAc6S
Method in brief: as §1

[20] = target: GalNAc(a1-3)Gal
Method in brief: as §1

[21] = target: GalNAc(a1-3)GalNAc
Method in brief: as §1

[22] = target: GalNAc(a1-3)GalNAc(a1-3)Gal(a1-4)Gal(b1-4)GlcNAc
Method in brief: as §1

[23] = target: GalNAc(b1-3)Gal
Method in brief: as §1

[24] = target: GalNAc(b1-3)Gal(a1-4)Gal(b1-4)GlcNAc
Method in brief: as §1

[25] = target: GalNAc(b1-3)Gal(a1-4)Gal(b1-4)GlcNAc(b1-3)Gal(b1-4)Glc
Method in brief: as §1

[26] = target: GalNAc(b1-3)Gal(a1-6)Gal(b1-4)Glc
Method in brief: as §1

[27] = target: GalNAc(b1-3)GalNAc
Method in brief: as §1

[28] = target: GalNAc(b1-4)GlcNAc
Method in brief: as §1

[29] = target: GalNAc(b1-4)GlcNAc(b1-2)Man(a1-3)[GalNAc(b1-4)GlcNAc(b1-2)Man(a1-6)]Man(b1-4)GlcNAc(b1-4)GlcNAc
Method in brief: as §1

[30] = target: Glc(a1-4)Glc
Method in brief: as §1

[31] = target: Glc(a1-6)Glc(a1-6)Glc
Method in brief: as §1

[32] = target: Glc(b1-4)Glc
Method in brief: as §1

[33] = target: Glc(b1-6)Glc
Method in brief: as §1

[34] = target: GlcA(b1-3)Gal
Method in brief: as §1

[35] = target: GlcA(b1-3)GlcNAc
Method in brief: as §1

[36] = target: GlcA(b1-6)Gal
Method in brief: as §1

[37] = target: GlcNAc(a1-3)Gal(b1-4)GlcNAc
Method in brief: as §1

[38] = target: GlcNAc(a1-4)Gal(b1-3)GlcNAc
Method in brief: as §1

B1: Gal 3 (Homo sapiens), P17931 (protein)
chain: MADNFSLHDALSGSGNPNPQGWPGAWGNQPAGAGGYPGASYPGAYPGQAPPGAYPGQAPPGAYHGAPGAYPGAPAPGVYPGPPSGPGAYPSSGQPSAPGAYPATGPYGAPAGPLIVPYNLPLPGGVVPRMLITILGTVKPNANILDFQRGNDVAFHFNPRFNENNRRVIVCNTKLDNNWGREERQSVFPFESGKPFKIQVLVEPDHFKVAVNDAHLLQYNHRVKKLNEISKLGISGDIDLTSASYTMI
glycan array binding signal (z-score) [1]: -0.389
glycan array binding signal (z-score) [2]: -0.389
glycan array binding signal (z-score) [3]: 1.02
glycan array binding signal (z-score) [4]: -0.39
glycan array binding signal (z-score) [5]: -0.385
glycan array binding signal (z-score) [6]: -0.164
glycan array binding signal (z-score) [7]: 0.23
glycan array binding signal (z-score) [8]: 0.983
glycan array binding signal (z-score) [9]: -0.39
glycan array binding signal (z-score) [10]: -0.387
glycan array binding signal (z-score) [11]: -0.393
glycan array binding signal (z-score) [12]: -0.381
glycan array binding signal (z-score) [13]: -0.388
glycan array binding signal (z-score) [14]: -0.391
glycan array binding signal (z-score) [15]: -0.391
glycan array binding signal (z-score) [16]: -0.376
glycan array binding signal (z-score) [17]: -0.368
glycan array binding signal (z-score) [18]: -0.387
glycan array binding signal (z-score) [19]: -0.391
glycan array binding signal (z-score) [20]: -0.388
glycan array binding signal (z-score) [21]: -0.385
glycan array binding signal (z-score) [22]: -0.391
glycan array binding signal (z-score) [23]: -0.39
glycan array binding signal (z-score) [24]: -0.391
glycan array binding signal (z-score) [25]: 2.01
glycan array binding signal (z-score) [26]: -0.388
glycan array binding signal (z-score) [27]: -0.388
glycan array binding signal (z-score) [28]: -0.38
glycan array binding signal (z-score) [29]: -0.389
glycan array binding signal (z-score) [30]: -0.391
glycan array binding signal (z-score) [31]: -0.392
glycan array binding signal (z-score) [32]: -0.387
glycan array binding signal (z-score) [33]: -0.383
glycan array binding signal (z-score) [34]: -0.386
glycan array binding signal (z-score) [35]: -0.392
glycan array binding signal (z-score) [36]: -0.387
glycan array binding signal (z-score) [37]: -0.391
glycan array binding signal (z-score) [38]: -0.39

— the supplement of paper PMC8728848
